These are yes or no findings as the source states them, for the method shown. For part of these data: In cells and extracts the contact can be indirect. Some binding calls cover weakened binding; strength is not graded here. For part of these data: Tags and fused reporters may be left off the sequences shown.

Assay [1] deals with VEGFR2, expressed in HEK293T cells (UniProt P35918). The assay can be described thus: co-IP; HEK293T cells transfected with Vegfr2 and WT Nrp1 or Nrp1 D320K; lysate in 1% Triton X-100, 150 mM NaCl; anti-VEGFR2 antibody and protein A/G beads; washes up to 300 mM NaCl.
Assay [2] concerns the target Neuropilin-1 S346A, E348A (tuftsin binding site mutant), on COS-1 cells (rat) (UniProt Q9QWJ9). The assay can be described thus: AP-tagged ligand binding to transfected cells, alkaline phosphatase histochemistry; COS-1 cells transfected with Nrp1 constructs; AP-tagged ligand from HEK293T medium, 2 nM, 75 min, HBHA pH 7; bound AP stained.
For assay [3], the target named is Neuropilin-1 D320K (rat cDNA in pCS2+), on COS-1 cells (rat) (UniProt Q9QWJ9). Described as above.
In assay [4] the target is Neuropilin-1 S346A, E348A, T349A (tuftsin binding site mutant), on COS-1 cells (rat) (UniProt Q9QWJ9). Described as above.
Assay [5] concerns the target Neuropilin-1, wild type (rat cDNA in pCS2+), on COS-1 cells (rat) (UniProt Q9QWJ9). The description is as above.
Assay [6] addresses Neuropilin-1 E319K, D320K (electronegative surface mutant), on COS-1 cells (rat) (UniProt Q9QWJ9). Described as above.
The target in assay [7] is Neuropilin-1 E282K, on COS-1 cells (rat) (UniProt Q9QWJ9). The description is as above.
Assay [8] concerns the target Neuropilin-1 E319K, on COS-1 cells (rat) (UniProt Q9QWJ9). Described as above.
The target in assay [9] is Neuropilin-1 D320K, endogenous, Nrp1^VEGF− knock-in mice (mouse (endogenous in embryo sections and lung)) (UniProt P97333). Description: AP-tagged ligand binding to tissue sections; 25 um cryosections of E12.5 mouse embryos, methanol-fixed; 2 nM AP-tagged ligand in PBS + 4 mM MgCl2, HEPES pH 7, 1.5 hr, room temperature; NBT/BCIP; read at the dorsal root entry zone.
In assay [10] the target is Neuropilin-1, endogenous, control mice (mouse (endogenous in embryo sections and lung)) (UniProt P97333). The assay is described as above.
Assay [11] addresses T1, NRP1/PlexinA4 complex (wild-type NRP1 co-expressed with PlexinA4) (rat | not stated) (UniProt Q9QWJ9+Q80UG2). The assay can be described thus: AP-tagged ligand binding to transfected cells, liquid alkaline phosphatase activity assay, KD measurement; AP-SEMA3A on cells co-expressing NRP1 or NRP1 D320K with PlexinA4; ligand concentrations not told.
Assay [12] has as its target T2, NRP1^D320K/PlexinA4 complex (NRP1 D320K co-expressed with PlexinA4) (rat | not stated) (UniProt Q9QWJ9+Q80UG2). The assay is described as above.
Assay [13] addresses T1, NRP1/PlexinA4 complex (wild-type NRP1 co-expressed with PlexinA4) (rat | not stated). Description: AP-tagged ligand binding to transfected cells, liquid alkaline phosphatase activity assay; COS-1 cells transfected with Nrp1 constructs (with PlexinA4 for AP-SEMA3A); 2 nM AP-tagged ligand, 75 min, HBHA pH 7; cells lysed, AP activity read at 405 nm; normalised to protein content and anti-NRP1 staining.

Assay [14] has as its target T2, NRP1^D320K/PlexinA4 complex (NRP1 D320K co-expressed with PlexinA4) (rat | not stated). The description is as above.

In the case of “Neuropilin-1 D320K, expressed in HEK293T cells (from UniProt Q9QWJ9 22-922) (receptor)”, in assay [1], the binding result was “binds”.
As to “Neuropilin-1, wild type, expressed in HEK293T cells (from UniProt Q9QWJ9 22-922) (receptor)”, the binding result in assay [1] is listed as “binds”.

B1: alkaline phosphatase-tagged SEMA3A (AP-SEMA3A) (ligand, UniProt Q14563 21-771)
chain: NYQNGKNNVPRLKLSYKEMLESNNVITFNGLANSSSYHTFLLDEERSRLYVGAKDHIFSFDLVNIKDFQKIVWPVSYTRRDECKWAGKDILKECANFIKVLKAYNQTHLYACGTGAFHPICTYIEIGHHPEDNIFKLENSHFENGRGKSPYDPKLLTASLLIDGELYSGTAADFMGRDFAIFRTLGHHHPIRTEQHDSRWLNDPKFISAHLISESDNPEDDKVYFFFRENAIDGEHSGKATHARIGQICKNDFGGHRSLVNKWTTFLKARLICSVPGPNGIDTHFDELQDVFLMNFKDPKNPVVYGVFTTSSNIFKGSAVCMYSMSDVRRVFLGPYAHRDGPNYQWVPYQGRVPYPRPGTCPSKTFGGFDSTKDLPDDVITFARSHPAMYNPVFPMNNRPIVIKTDVNYQFTQIVVDRVDAEDGQYDVMFIGTDVGTVLKVVSIPKETWYDLEEVLLEEMTVFREPTAISAMELSTKQQQLYIGSTAGVAQLPLHRCDIYGKACAECCLARDPYCAWDGSACSRYFPTAKRRTRRQDIRNGDPLTHCSDLHHDNHHGHSPEERIIYGVENSSTFLECSPKSQRALVYWQFQRRNEERKEEIRVDDHIIRTDQGLLLRSLQQKDSGNYLCHAVEHGFIQTLLKVTLEVIDTEHLEELLHKDDDGDGSKTKEMSNSMTPSQKVWYRDFMQLINHPNLNTMDEFCEQVWKRDRKQRRQRPGHTPGNSNKWKHLQENKKGRNRRTHEFERAPRSV
As for B1, the binding result is on record as “no binding (tested: 2 nM ligand)” in [2]; “binds” in [3]; “no binding (tested: 2 nM ligand)” in assay [4]; “binds” in [5]; “binds” in assay [6]; “binds” in assay [7]. Besides, the binding result in assay [8], in [9], in assay [10], in assay [11], in assay [12] and in assay [13] was “binds” throughout. The binding result in assay [14] is on record as “binds”.

The values above are taken from PMC4197402.
